B1: O-GlcNAc modified HSP27 P182L (gT184) (natural protein)
chain: not shown
modifications: O-GlcNAc on threonine 184
B2: O-GlcNAc modified HSP27 P182S (gT184) (natural protein)
chain: not shown
modifications: O-GlcNAc on threonine 184

Target: the molecule itself
Assay: SEC-MALS; refolded HSP27 proteins at 1.5 mg/mL in 1x DPBS, 2 mM DTT; 150 ug injected; Shodex 804 column; mobile phase degassed 1x DPBS, 0.5 mL/min; self-association into oligomers

Row | Protein | binding result
1 | B1 | binds
2 | B2 | binds

From article PMC10442854 (ACS chemical biology, 2023)
